Measurements taken from PMC4336329 (PLoS ONE, 2015).
Among all 310,000 compounds or so, about 14,000 (4.5%) showed an effect of 50% or more. Effects have a minus sign here. Some of the results follow.

Each compound was assayed against human ether-à-go-go-related gene (hERG) potassium channel (human, UniProt Q12809) (assay: primary screen, population patch clamp on CHO cells stably expressing hERG).
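Note: peak tail current of the secondary pulse compared with the same well before compound.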

Chain of human ether-à-go-go-related gene (hERG) potassium channel (Q12809 whole entry, looked up): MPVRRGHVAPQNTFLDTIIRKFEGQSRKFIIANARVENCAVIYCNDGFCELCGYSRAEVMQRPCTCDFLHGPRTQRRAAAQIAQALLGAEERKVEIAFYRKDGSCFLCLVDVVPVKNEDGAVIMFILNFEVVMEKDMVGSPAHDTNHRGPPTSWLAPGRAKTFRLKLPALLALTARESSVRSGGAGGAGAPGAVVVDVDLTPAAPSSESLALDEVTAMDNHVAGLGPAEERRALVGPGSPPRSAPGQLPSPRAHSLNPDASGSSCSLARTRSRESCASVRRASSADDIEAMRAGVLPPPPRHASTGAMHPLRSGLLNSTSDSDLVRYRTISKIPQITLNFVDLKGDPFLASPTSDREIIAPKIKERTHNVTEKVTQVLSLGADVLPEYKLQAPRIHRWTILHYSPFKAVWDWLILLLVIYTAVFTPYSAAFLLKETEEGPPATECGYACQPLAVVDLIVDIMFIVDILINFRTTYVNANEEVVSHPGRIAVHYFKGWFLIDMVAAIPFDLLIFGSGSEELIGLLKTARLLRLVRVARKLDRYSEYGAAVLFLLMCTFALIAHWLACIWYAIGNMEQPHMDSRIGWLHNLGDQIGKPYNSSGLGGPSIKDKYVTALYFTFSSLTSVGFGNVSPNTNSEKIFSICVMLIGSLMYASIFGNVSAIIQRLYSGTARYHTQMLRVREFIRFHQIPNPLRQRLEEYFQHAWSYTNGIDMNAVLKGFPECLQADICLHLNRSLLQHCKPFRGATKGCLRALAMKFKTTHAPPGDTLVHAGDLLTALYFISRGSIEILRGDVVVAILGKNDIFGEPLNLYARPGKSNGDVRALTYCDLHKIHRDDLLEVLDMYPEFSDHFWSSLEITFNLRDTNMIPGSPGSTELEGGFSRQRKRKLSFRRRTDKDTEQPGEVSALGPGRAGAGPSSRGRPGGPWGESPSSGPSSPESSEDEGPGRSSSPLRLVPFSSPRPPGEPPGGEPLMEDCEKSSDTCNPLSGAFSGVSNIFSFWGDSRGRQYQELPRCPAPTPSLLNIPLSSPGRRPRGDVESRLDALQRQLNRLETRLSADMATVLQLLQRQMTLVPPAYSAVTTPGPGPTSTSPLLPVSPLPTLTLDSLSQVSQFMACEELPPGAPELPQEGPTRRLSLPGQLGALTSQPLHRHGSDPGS

| Compound | hERG current change (%, negative = inhibition) at 10uM [%] |
| --- | --- |
| CCCCOP(=O)(c1ccc(N(C)C)cc1)C(O)c1ccc(N(C)C)cc1 (stereo not shown) | -5.3 |
| Cl.Fc1ccc(Cn2nnnc2CN2CCc3ccccc3C2)cc1 | -10.6 |
| Cc1cc(S(=O)(=O)N(Cc2ccccc2Cl)c2ccc3c(c2)CCC3)ccc1-n1cnnn1 | 8.67 |
| CN(CC(=O)Nc1cccc(F)c1)C(=O)c1cccc(S(=O)(=O)N2CC3(C)CC2CC(C)(C)C3)c1 (stereo not shown) | 21.3 |
| O=C(Nc1sc2c(c1C(=O)NCc1cccnc1)CCCC2)c1ccco1 | -7.77 |
| Cc1ccc(C)c(N2CCN(C(=O)Cn3ncn4cccc4c3=O)CC2)c1 | -4.56 |
| COc1ccc(/C=C2/SC(=S)N(CCC(=O)O)C2=O)cc1 | -6.73 |
| O=C(CSCc1ccccc1)Nc1ccccc1C(=O)Nc1ccc(C(=O)O)cc1 | 9.88 |
| CCN1C(=O)[C@@H]2[C@@H](c3ccc(-c4ccc5c(c4)OCO5)c(OC)c3)N3CCCC[C@@]3(C(=O)OC)[C@@H]2C1=O.O=C(O)C(F)(F)F | 0.936 |
| Cc1nn(-c2ccc(N3CCOCC3)nn2)c(C)c1CCC(=O)NCc1ccccc1 | 0.347 |
| CCC(C)NC(=O)c1cn(CC)c2ccc(S(=O)(=O)N3CCCCCC3)cc2c1=O (stereo not shown) | -17.2 |
| COCCN(C(=O)CSc1n[nH]c(-c2ccccc2)n1)c1c(N)n(Cc2ccccc2)c(=O)[nH]c1=O | -16.9 |
| O=C(CCNC(=O)c1ccccc1Cl)Nc1ccc(S(=O)(=O)Nc2ncccn2)cc1 | 5.89 |
| COc1ccc(SC[C@H](Cc2ccccc2)N2CC[C@@H](O)CCC2=O)cc1 | -8.62 |
| C=CCC1(Cl)C(=O)C(Cl)=C(N2CCN(C)CC2)C1(OC)OC (stereo not shown) | 24.9 |
| COc1ccc(S(=O)(=O)N2CCCOC2CNC(=O)C(=O)NCc2ccco2)cc1 (stereo not shown) | -22 |
| Cc1cccc(NS(=O)(=O)c2cccc(C(=O)NNC(=O)c3ccccc3O)c2)c1 | 8.52 |
| COCC(C)NC(=O)CSc1ncnc2sc(-c3ccccc3)cc12 (stereo not shown) | -10.1 |
| COC(=O)c1c(C)oc2cc(Br)c(OCC(=O)C(C)(C)C)cc12 | 6.12 |
| CC(=O)c1ccc(OC(C)c2nc3ccccc3s2)cc1 (stereo not shown) | -15.8 |
| C=CCN(C(=O)CCC(=O)Nc1cc(C)on1)C(C(=O)NC1CCCC1)c1ccc(CC)cc1 (stereo not shown) | -17.5 |
| Nc1ncc(Br)cc1S(=O)(=O)Nc1cc(C(F)(F)F)cc(C(F)(F)F)c1 | 18.9 |

| Compound | hERG current change (%, negative = inhibition) at 10uM [%] |
| --- | --- |
| O=C(O)C1Cc2ccccc2CN1C(=O)c1ccccc1Cl (stereo not shown) | 15.4 |
| COc1cccc(N2CCN(C3C4CC5CC(C4)CC3C5)CC2)c1 (stereo not shown) | 2.54 |
| Cc1ccc(-n2cnc3c(sc4nc(N5CCOCC5)c5c(c43)CCCC5)c2=O)cc1 | 20.6 |
| O=C(c1cc([N+](=O)[O-])ccc1N1CCNCC1)N1CCOCC1 | 4.75 |
| CCOC(=O)C1C(=O)NC(c2ccccc2)=NC1c1ccccc1 (stereo not shown) | 8.01 |
| COC(=O)c1cccc(NC(=O)CC2NCCNC2=O)c1 (stereo not shown) | -17.9 |
| Cc1cc(C(=O)N2CCCC(N3CCN(c4cccc(C(F)(F)F)c4)CC3)C2)no1 (stereo not shown) | -2.14 |
| Cc1ccc(Nc2nc(N)nc(CSc3nnc(C)s3)n2)cc1 | -10.1 |
| O=C(CN1C(=O)CSc2ccc(S(=O)(=O)N3CCOCC3)cc21)N1CCCCC1 | 15.1 |
| COc1cnc(-c2cccc(C(F)(F)F)c2)nc1OC | 26.6 |
| O=C(CSc1ncnc2ccccc12)Nc1ccc2c(c1)OCCO2 | 5.48 |
| Cc1cc(C(=O)N2CCCC(CCC(=O)N3CCN(c4ccccn4)CC3)C2)c(C)o1 (stereo not shown) | -9.16 |
| COc1ccc(NC(=O)COC(=O)c2ccc(-n3nc(C)cc3C)cc2)cc1OC | 13.1 |
| CC(Oc1ccccc1)C(=O)N=C1SC2CS(=O)(=O)CC2N1Cc1ccc(F)cc1 (stereo not shown) | -24.6 |
| COc1ccc(-c2nc(SC(CC(=O)NCCN3CCOCC3)c3cccs3)n[nH]2)cc1 (stereo not shown) | 1.08 |
| COc1ccc(/C=N\NC(=O)c2ccccc2F)cc1COc1ccc(F)cc1 | 27.1 |
| Cc1c(C(=O)O)cccc1-n1c(C)cc(/C=N/NC(=O)c2cc3ccccc3o2)c1C | 13.1 |
| N#CC(C#N)=C(N)c1cccnc1 | 27.2 |
| CCCCC(=O)N1CCN(c2nc3ccc(F)cc3s2)CC1 | -65.3 |
| CN(C)C=O.O=C(COC(=O)c1ccc(S(=O)(=O)N2CCCC2)cc1)Nc1cccnc1Cl | 7.25 |
| CCO[C@@H]1OC(C(=O)NCc2nc3ccccc3[nH]2)=C[C@H](c2ccccc2)[C@H]1CCCO | -25.4 |
| Cc1ccccc1CNC(=O)C(=O)NCCC1CCCCN1S(=O)(=O)c1ccccc1 (stereo not shown) | -6.46 |

| Compound | hERG current change (%, negative = inhibition) at 10uM [%] |
| --- | --- |
| CC1CC1C(=O)OCc1cc(=O)n2cc(Br)ccc2n1 (stereo not shown) | -16.2 |
| CC(=O)Nc1ccc(NC(=O)COC(=O)C2(c3ccc(Cl)cc3)CCCC2)cc1 | 2.64 |
| N#CCSc1nnc(COc2ccccc2)n1-c1ccccc1 | -10.7 |
| Cc1ccc(S(=O)(=O)c2nc(S(C)(=O)=O)sc2N2CC(C)OC(C)C2)cc1 (stereo not shown) | 5.46 |
| COC(=O)c1cc(C(=O)Cc2ccccc2)c[nH]1 | -10.8 |
| CC1CCCCN1S(=O)(=O)Cc1ccccc1Cl (stereo not shown) | 6.35 |
| Cc1ccccc1NC(=O)Cc1nc(COC(=O)c2ccc(Cl)c(S(N)(=O)=O)c2)cs1 | -60.9 |
| CCC1(C(=O)OC)NC(c2ccco2)C2C(=O)N(c3ccc(C)cc3)C(=O)C21 (stereo not shown) | 9.07 |
| COc1ccc(CNC(=O)C/C(C)=N/NC(=O)c2ccc([N+](=O)[O-])cc2Cl)cc1 | -20.2 |
| O=C(O)CCNC(=O)/C(=C/C=C/c1ccccc1)NC(=O)c1ccccc1 | 16.6 |
| C=CCc1cccc2ccc(=O)oc12 | -3.56 |
| Cc1nc2ccc(NC(=O)c3cc([N+](=O)[O-])cc([N+](=O)[O-])c3Cl)cc2s1 | 11.4 |
| COc1ccc(/C=N/NC(=O)c2cc(-c3cccc(C)c3)nc3ccccc23)cc1O | 16.6 |
| O=C(COc1ncnc2cc([N+](=O)[O-])ccc12)N(CCc1ccccc1)Cc1ccccc1 | 7.35 |
| O=C(Nc1ccc(N2CCCCC2)cc1)c1ccccc1 | 15.5 |
| Nc1nc(-c2cc(O)ccc2[N+](=O)[O-])cc(-c2ccccc2)c1[N+](=O)[O-] | 18.1 |
| Cc1cc(CN2CCCC(C(=O)Nc3cccc(-n4cccn4)c3)C2)cc(C)c1O (stereo not shown) | -42 |
| CCOC(=O)C1CCN(S(=O)(=O)c2cccc(-c3cn4cccc(C)c4n3)c2)CC1 | -21.3 |
| CCOCCCNC(=S)Nc1ccc(S(N)(=O)=O)cc1 | 8.83 |
| CC(C)S(=O)(=O)c1csc(NC(=O)Nc2cccc([N+](=O)[O-])c2)c1Cl | -36.9 |
| CCCC(=O)Nc1ccc(Cl)c(NC(=O)C(C)(C)C)c1 | -9.68 |
| CC(C)=CCN1CCN(Cc2cccn2-c2ncccn2)CC1CCO (stereo not shown) | -39.6 |

| Compound | hERG current change (%, negative = inhibition) at 10uM [%] |
| --- | --- |
| COc1ccc(NC(=O)c2csc(C)c2)cc1OC | 9.55 |
| CCOC(=O)c1sc(-c2ccccc2)cc1NC(=O)Nc1ccccc1 | 9.44 |
| COc1cc(/C=N/NC(=O)c2ccc3c(c2)OCO3)ccc1O | -10.5 |
| CC(O)c1nc2ccccc2n1C1CCCCC1 (stereo not shown) | -4.64 |
| Nc1c(C(=O)O)cnn1-c1ccc([N+](=O)[O-])cc1 | 24.3 |
| CCOC(=O)c1ccc(CNC(=O)CCC(=O)O)cc1 | 4.15 |
| COCCn1c(SCC(=O)NC2CCCC2)nnc1C(C)C | 22.6 |
| Cc1ccc2cc(CN(CC3CCCO3)C(=S)NCc3ccco3)c(=O)[nH]c2c1 (stereo not shown) | 11.1 |
| O=S(=O)(c1ccc(NC(=S)NCCc2ccccc2)cc1)N1CCOCC1 | -6.2 |
| CCCc1nnc(NC(=O)CCC(=O)N2CCCCC2)s1 | -1.96 |
| Cc1ccccc1C(=O)NC(=S)NCc1cccnc1 | 31.9 |
| Cc1cnc(NC(=O)c2cccc(S(=O)(=O)N3CC(C)OC(C)C3)c2)s1 (stereo not shown) | -18.8 |
| Cc1ccc(-n2ncc3c2CCCC3NC(=O)CCc2cnccn2)cc1C (stereo not shown) | -15.1 |
| Cc1ccccc1NC(=O)NNC(=O)COc1ccc2ccccc2c1 | 8.93 |
| CCOc1ccc2c(c1)c1nnc(SCC3CCCO3)nc1n2C (stereo not shown) | -40.8 |
| Cc1sc2nc(COC(=O)c3ccc(N4CCCC4)c([N+](=O)[O-])c3)[nH]c(=O)c2c1C | 1.46 |
| CN(CCO)c1nc(N)c2c(N)nc3c(c2c1C#N)CC(=O)N3Cc1cccs1 | -29.6 |
| CNc1nc(Cl)c(SC)c(NC2CCCCC2)n1 | 4.19 |
| CCn1ccnc1CN(C)Cc1nc(-c2cccc(Cl)c2)no1 | -44.1 |
